{"source": "patent US6479653B1", "about": "“Compositions and method for regulation of transcription” (ARIAD Gene Therapeutics, Inc., priority 1997, dated 2002)", "tested_on": "GAL4 responsive reporter gene", "assay": "Rapamycin-induced expression of stably integrated GAL4-responsive SEAP reporter in transfected HT1080 B cells", "assay_type": "cell-based", "conditions": "cells expressing GF1 and a limited amount of RLS, 10 nM rapamycin"}
{"molecule": "L: E. coli lactose repressor, amino acids 46-360 (protein, UniProt P03023 46-360, looked up, fragment) NYIPNRVAQQLAGKQSLLIGVATSSLALHAPSQIVAAIKSRADQLGASVVVSMVERSGVEACKAAVHNLLAQRVSGLIINYPLDDQDAIAVEAACTNVPALFLDVSDQTPINSIIFSHEDGTRLGVEHLVALGHQQIALLAGPLSSVSARLRLAGWHKYLTRNQIQPIAEREGDWSAMSGFQQTMQMLNEGIVPTAMLVANDQMALGAMRAITESGLRVGADISVVGYDDTEDSSCYIPPLTTIKQDFRLLGQTSVDRLLQLSQGQAVKGNQLLPVSLVKRKTTLAPNTQTASPRALADSLMQLARQVSRLESGQ", "values": [{"measurement": "effect of co-expressed excess protein on rapamycin-induced reporter gene expression", "value": "inhibits rapamycin-induced reporter gene expression"}]}
